Patent US4409210A, “Antibiotic compound” (priority 1982, dated 1983)
*1 amine or outer side, *2 acyl side, *3 side chain or, on linkers, in order; H or OH if unused. Where a SMILES comes first, the peptide text is derived from it. Bridges are numbered along the chain shown (N, C = ends). [ ]: non-standard residue; d: D form. ξ: configuration not given here. X2 = CCCCCCCCCCCC(CC(=O)[*:1])O[*:2]; ξAsp(3ξ-OH) = NC(C(=O)O)C(O)C(=O)O; X1 = O=C(C1C(O)CCN1[*:1])[*:2]

Source text: Bu-2517 is isolated as a white amorphous solid in the above-described purification process. The antibiotic is soluble in water (solubility: >10%) at neutral and alkaline pH's. Its aqueous solution forms a precipitate in the pH range of 2.4-4.2. Bu-2517 is soluble in methanol, ethanol, aqueous dioxane, dimethylformamide and dimethylsulfoxide. […] The following Rf values were obtained with Bu-2517 in the silica gel (KIESELGEL 60F254, MERCK) thin layer chromatography (TLC) systems shown below: […]

CCCCCCCCCCCC1CC(=O)N2CCCC2C(=O)NC(CO)C(=O)N2CCCC2C(=O)NC(CCCNC(=N)N)C(=O)NC(C(O)C(=O)O)C(=O)NC(CO)C(=O)N2CCC(O)C2C(=O)NC(C(O)C(=O)O)C(=O)O1 (stereo not shown) [Bu-2517] (PSPR[ξAsp(3ξ-OH)]S[X1][ξAsp(3ξ-OH)]; linker N-C via X2; configuration not given here)
solubility in water: > 10%
